Experimental data as given in US9686988B2, “Pesticidal compounds based on arylthiosulfonamide derivatives” (Syngenta Participations AG, priority 2012, dated 2017).
Some results were stated once for a whole list of compounds, not compound by compound.

Tests used:
Type in all cases: in vivo
[1] = test system: Myzus persicae; experiment: Myzus persicae (green peach aphid), sunflower leaf disc spray test; details: application rate of 200 ppm; 6 days after infestation; mixed ages
Experimental: Myzus persicae (Green Peach Aphid):
(§1) Sunflower leaf discs were placed on agar in a 24-well microtiter plate and sprayed with aqueous test solutions prepared from 10′000 ppm DMSO stock solutions. After drying, the leaf discs were infested with an aphid population of mixed ages. The samples were assessed for mortality 6 days after infestation.

[2] = test system: Tetranychus urticae; experiment: Tetranychus urticae (two-spotted spider mite), bean leaf disc spray test; details: application rate of 200 ppm; mortality (mobile stages) 8 days after infestation; mixed ages
Experimental: Tetranychus urticae (Two-Spotted Spider Mite):
Bean leaf discs on agar in 24-well microtiter plates were sprayed with aqueous test solutions prepared from 10′000 ppm DMSO stock solutions. After drying the leaf discs were infested with a mite population of mixed ages. The samples were assessed for mortality (mobile stages) 8 days after infestation.

[3] = test system: Plutella xylostella; experiment: Plutella xylostella (diamond back moth), L2 larvae on artificial diet; details: application rate of 200 ppm, mortality and growth inhibition 5 days after infestation
Experimental: Plutella xylostella (Diamond Back Moth):
24-well microtiter plates with artificial diet were treated with aqueous test solutions prepared from 10′000 ppm DMSO stock solutions by pipetting. After drying, the plates were infested with L2 larvae (10 to 15 per well). The samples were assessed for mortality and growth inhibition 5 days after infestation. Control of Plutella xyllostella by a test sample is noted when at least one of mortality and growth inhibition is better than the untreated sample.

[4] = test system: Thrips tabaci; experiment: Thrips tabaci (onion thrips), sunflower leaf disc spray test; details: application rate of 200 ppm; mortality 6 days after infestation; mixed ages
Experimental: Thrips tabaci (Onion Thrips):
as §1, with “in” for “in a”, “plates” for “plate”, “drying” for “drying,”, “a thrips” for “an aphid”

[5] = test system: Spodoptera littoralis; experiment: Spodoptera littoralis (Egyptian cotton leaf worm), cotton leaf disc spray test; details: application rate of 200 ppm; mortality, anti-feedant effect, growth inhibition 3 days after infestation; L1 larvae
Experimental: Spodoptera littoralis (Egyptian Cotton Leaf Worm)
Cotton leaf discs were placed on agar in 24-well microtiter plates and sprayed with aqueous test solutions prepared from 10′000 ppm DMSO stock solutions. After drying the leaf discs were infested with five L1 larvae. The samples were assessed for mortality, anti-feedant effect, and growth inhibition 3 days after infestation. Control of Spodoptera littoralis by a test sample is noted when at least one of mortality, anti-feedant effect, and growth inhibition is better than the untreated sample.

[6] = test system: Diabrotica balteata; experiment: Diabrotica balteata (corn rootworm), sprayed maize sprouts; details: application rate of 200 ppm, 4 days after infestation, L2 larvae
Experimental: Diabrotica balteata, (Corn Rootworm)
Maize sprouts, placed on an agar layer in 24-well microtiter plates were treated with aqueous test solutions prepared from 10′000 ppm DMSO stock solutions by spraying. After drying, the plates were infested with L2 larvae (6 to 10 per well). The samples were assessed for mortality 4 days after infestation.

O=S(=O)(CSc1ccc(C2=NOC(c3cc(Cl)cc(Cl)c3)(C(F)(F)F)C2)cc1Br)NCC1CCC1 (stereo not shown) [Compound C23]
at least 80%: mortality of Myzus persicae [1] | control of Tetranychus urticae [2] | control of Plutella xylostella [3] | control of Thrips tabaci [4] | control of Spodoptera littoralis [5] | mortality of Diabrotica balteata [6]

CCN(C)S(=O)(=O)CSc1ccc(C2=NOC(c3cc(Cl)cc(Cl)c3)(C(F)(F)F)C2)cc1Br (stereo not shown) [Compound C53]
at least 80%: mortality of Myzus persicae [1] | control of Tetranychus urticae [2] | control of Plutella xylostella [3] | control of Thrips tabaci [4] | control of Spodoptera littoralis [5] | mortality of Diabrotica balteata [6]

C=CCN(C)S(=O)(=O)CSc1ccc(C2=NOC(c3cc(Cl)cc(Cl)c3)(C(F)(F)F)C2)cc1Br (stereo not shown) [Compound C52]
at least 80%: mortality of Myzus persicae [1] | control of Tetranychus urticae [2] | control of Plutella xylostella [3] | control of Thrips tabaci [4] | control of Spodoptera littoralis [5] | mortality of Diabrotica balteata [6]

O=S(=O)(CSc1ccc(C2=NOC(c3cc(Cl)cc(Cl)c3)(C(F)(F)F)C2)cc1Br)NC1CSC1 (stereo not shown) [Compound C36]
at least 80%: mortality of Myzus persicae [1] | control of Tetranychus urticae [2] | control of Plutella xylostella [3] | control of Thrips tabaci [4] | control of Spodoptera littoralis [5] | mortality of Diabrotica balteata [6]

CCCCNS(=O)(=O)CSc1ccc(C2=NO[C@@](c3cc(Cl)cc(Cl)c3)(C(F)(F)F)C2)cc1Br [Compound C1]
at least 80%: mortality of Myzus persicae [1] | control of Tetranychus urticae [2] | control of Plutella xylostella [3] | control of Thrips tabaci [4] | control of Spodoptera littoralis [5] | mortality of Diabrotica balteata [6]

CC1(NS(=O)(=O)CSc2ccc(C3=NO[C@@](c4cc(Cl)cc(Cl)c4)(C(F)(F)F)C3)cc2Br)CSC1 [Compound C12]
at least 80%: mortality of Myzus persicae [1] | control of Tetranychus urticae [2] | control of Plutella xylostella [3] | control of Thrips tabaci [4] | control of Spodoptera littoralis [5] | mortality of Diabrotica balteata [6]

COCCNS(=O)(=O)CSc1ccc(C2=NOC(c3cc(Cl)cc(Cl)c3)(C(F)(F)F)C2)cc1Br (stereo not shown) [Compound C37]
at least 80%: mortality of Myzus persicae [1] | control of Tetranychus urticae [2] | control of Plutella xylostella [3] | control of Thrips tabaci [4] | control of Spodoptera littoralis [5] | mortality of Diabrotica balteata [6]

CN(C(C)(C)C)S(=O)(=O)CSc1ccc(C2=NOC(c3cc(Cl)cc(Cl)c3)(C(F)(F)F)C2)cc1Br (stereo not shown) [Compound C39]
at least 80%: mortality of Myzus persicae [1] | control of Plutella xylostella [3] | control of Thrips tabaci [4] | control of Spodoptera littoralis [5] | mortality of Diabrotica balteata [6]

CCOCCNS(=O)(=O)CSc1ccc(C2=NO[C@@](c3cc(Cl)cc(Cl)c3)(C(F)(F)F)C2)cc1Br [Compound C18]
at least 80%: mortality of Myzus persicae [1] | control of Tetranychus urticae [2] | control of Plutella xylostella [3] | control of Thrips tabaci [4] | control of Spodoptera littoralis [5] | mortality of Diabrotica balteata [6]

CCCN(C)S(=O)(=O)CSc1ccc(C2=NOC(c3cc(Cl)cc(Cl)c3)(C(F)(F)F)C2)cc1Br (stereo not shown) [Compound C40]
at least 80%: mortality of Myzus persicae [1] | control of Tetranychus urticae [2] | control of Plutella xylostella [3] | control of Thrips tabaci [4] | control of Spodoptera littoralis [5] | mortality of Diabrotica balteata [6]

CCCNS(=O)(=O)CSc1ccc(C2=NO[C@@](c3cc(Cl)cc(Cl)c3)(C(F)(F)F)C2)cc1Br [Compound C19]
at least 80%: mortality of Myzus persicae [1] | control of Tetranychus urticae [2] | control of Plutella xylostella [3] | control of Thrips tabaci [4] | control of Spodoptera littoralis [5] | mortality of Diabrotica balteata [6]

O=S(=O)(CSc1ccc(C2=NOC(c3cc(Cl)cc(Cl)c3)(C(F)(F)F)C2)cc1Br)NC1COC1 (stereo not shown) [Compound C30]
at least 80%: mortality of Myzus persicae [1] | control of Tetranychus urticae [2] | control of Plutella xylostella [3] | control of Thrips tabaci [4] | control of Spodoptera littoralis [5] | mortality of Diabrotica balteata [6]

O=S(=O)(CSc1ccc(C2=NO[C@@](c3cc(Cl)cc(Cl)c3)(C(F)(F)F)C2)cc1Br)NC1CCC1 [Compound C16]
at least 80%: mortality of Myzus persicae [1] | control of Tetranychus urticae [2] | control of Plutella xylostella [3] | control of Thrips tabaci [4] | control of Spodoptera littoralis [5] | mortality of Diabrotica balteata [6]

C=CCNS(=O)(=O)CSc1ccc(C2=NO[C@@](c3cc(Cl)cc(Cl)c3)(C(F)(F)F)C2)cc1Br [Compound C22]
at least 80%: mortality of Myzus persicae [1] | control of Tetranychus urticae [2] | control of Plutella xylostella [3] | control of Thrips tabaci [4] | control of Spodoptera littoralis [5] | mortality of Diabrotica balteata [6]

CCN(C(C)C)S(=O)(=O)CSc1ccc(C2=NOC(c3cc(Cl)cc(Cl)c3)(C(F)(F)F)C2)cc1Br (stereo not shown) [Compound C38]
at least 80%: control of Tetranychus urticae [2] | control of Plutella xylostella [3] | control of Thrips tabaci [4] | control of Spodoptera littoralis [5] | mortality of Diabrotica balteata [6]

O=S(=O)(CSc1ccc(C2=NOC(c3cc(Cl)cc(Cl)c3)(C(F)(F)F)C2)cc1Br)NC1CC=CC1 (stereo not shown) [Compound C27]
at least 80%: mortality of Myzus persicae [1] | control of Tetranychus urticae [2] | control of Plutella xylostella [3] | control of Thrips tabaci [4] | control of Spodoptera littoralis [5] | mortality of Diabrotica balteata [6]

O=S(=O)(CSc1ccc(C2=NO[C@@](c3cc(Cl)cc(Cl)c3)(C(F)(F)F)C2)cc1Br)NC1CC2CCC1C2 (stereo partly shown) [Compound C15]
at least 80%: mortality of Myzus persicae [1] | control of Plutella xylostella [3] | control of Thrips tabaci [4] | control of Spodoptera littoralis [5] | mortality of Diabrotica balteata [6]

O=S(=O)(CSc1ccc(C2=NOC(c3cc(Cl)cc(Cl)c3)(C(F)(F)F)C2)cc1Br)N1CCCC1 (stereo not shown) [Compound C47]
at least 80%: control of Tetranychus urticae [2] | control of Plutella xylostella [3] | control of Thrips tabaci [4] | control of Spodoptera littoralis [5] | mortality of Diabrotica balteata [6]

O=S(=O)(CSc1ccc(C2=NOC(c3cc(Cl)cc(Cl)c3)(C(F)(F)F)C2)cc1Br)NCCC(F)(F)F (stereo not shown) [Compound C3]
at least 80%: control of Tetranychus urticae [2] | control of Plutella xylostella [3] | control of Thrips tabaci [4] | control of Spodoptera littoralis [5] | mortality of Diabrotica balteata [6]
